# Assay results: the supplement of paper PMC11417369
# Some of the results follow.
# Test system: PfSIP2 AP2 domain 1 (GST-tagged)
# Test: gcPBM binding intensity (ln(normalized median fluorescence intensity)); higher = stronger DNA binding
# Outline: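 Binding of GST-tagged P. falciparum DNA-binding domains, expressed in E. coli and used at about 25 μg on average, was carried out for 1 h in 1× PBS containing 1% milk, 0.2 mg/ml BSA, 0.5% salmon testes DNA and 0.03% Triton X-100. The target was an Agilent 4 × 180k array of primer-extended double-stranded 36-bp intergenic genomic probes plus negative controls, read with Alexa488 anti-GST antibody at 488 nm. Binding intensity is the highest Masliner-normalised natural-log median intensity across replicate spots of either probe orientation.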
row,Sequence,gcPBM binding intensity (ln)
1,TGATTATATAAAAAAAAGAAAAAAAAAAAAAAAAAA [CACACA_negctrl_site819],7.08
2,ATGCATCATTTATTTGCACACCTATTATATACTTTT [CACACA_site2097],7.22
3,ATATGTACATATCTCATGCACTTAACAAAAAAAAAG [GTGCAC_site9898],8.42
4,TAAAGAGTCATGTGGTGTACCTGCTTCACCACATAT [XGTACX_site1288],6.89
5,TATATATTCATAAAGTGTACATGTTTATATATATAT [XGTACX_site7585],8.48
6,TTATTTTTAATATCGGTGCAACAAAAAGGAAAAGAT [GTGCAC_site9482],9.64
7,TATGTATAGATATATACACACTTCTGTGATACGAAA [CACACA_site7003],6.75
8,GATGATTCAATTTATGCACACTAAAAATTAATTATA [CACACA_site4308],8.82
9,CCATAGATATTTTATACACACATATAATATATTAAT [CACACA_site373],7.17
10,ACCAAAAGGGGATGTAGTACAATATGATTAGAAGAA [XGTACX_site3773],7
11,AAATAATATATTCCTTGTACTTATTTCAATGAATTC [XGTACX_site7719],6.83
12,ATAATCTGACAAATGTGTACACATATATATATATAT [XGTACX_site2379],9.71
13,TAACTTCAAACAAAATATGGTAAAAGTGGTTGAAAA [CACACA_negctrl_site42],7.03
14,AAAATACCCGGACACACACACATATATATATATATT [CACACA_site6137],7.2
15,GATATGATTAACTTATGTTATTCTTGATGGTTTCTT [GTGCAC_negctrl_site411],6.59
16,TAATAAGGTTACAACAAACACACAAAGGAATATACA [CACACA_site4089],7.07
17,TAATTTGTTAAAGGTTCACATATGGTATATACTTCT [XGTACX_negctrl_site292],6.8
18,TATCACAAAATATACTGTACATACAGGCAGTAATAT [XGTACX_site2487],7.02
19,TTATAAAACCATGTCATCAACATAGGCACAAAAATG [CACACA_negctrl_site1160],7.1
20,AAGAATCACCAAATATGTACACACCTTAACATGTTT [XGTACX_site4272],7.24
21,CCACTGTATGAATGCACACATTCATAGAATTGCTAT [CACACA_site2676],7.11
22,TTATTTTACTTTTATGCAACTAAAAATATTGCTATA [XGTACX_negctrl_site277],7.06

row,Sequence,gcPBM binding intensity (ln)
1,AATAAAATTTGCGATGCACACAGAATAGCTAATATG [CACACA_site8983],7.16
2,CATATAGATTTGTTCACACACACACTAAAAAAAAAA [CACACA_site7212],7.11
3,ATATTCAATTCATACACACACAATTTAAGAATGATA [CACACA_site3883],7
4,ACAAATGTGAGAAAGACACACATATAATAAAAAACA [CACACA_site1156],6.89
5,TATATTTAATTATTTTGTACTCATATAAAGATGATG [XGTACX_site5488],6.91
6,AAAAAAAAAATATTTGAACACACGAGGATATATAAA [CACACA_site139],6.89
7,CACACGCACGAACACACACACACACGCACGCACATA [CACACA_site6305],7.62
8,TACAGACATACATACACACATACATACAGACATACA [CACACA_site1941],7.17
9,TACATATTTACTATCACACACACGATATAAATAAAT [CACACA_site6701],7.11
10,ATGAATAAAAAAGGTGGTACATATATATATATATAT [XGTACX_site7893],8.87
11,ATACATATATAATTATGTACGTATATTTTATATAAC [XGTACX_site4292],7.41
12,AAAATAATATAAATAATATAAGTGAGCATATATATA [TGCATGCA_negctrl_site527],7.32
13,TGTCTTGTAAATTATTGTACTATTTAAAGTATAAAA [XGTACX_site7863],7.07
14,TGTAGTCTGGAGAAAAGTACATAGTATCTGGTAACA [XGTACX_site4940],6.86
15,TTTTAATTTTAAAAATGTACTTTTATTATTTTTAAT [XGTACX_site8300],6.71
16,AAATAGTTAAAAAGGCGTACACATAAATAAATAAAT [XGTACX_site2096],7.59
17,TATTATATGTAGTTGAGTACATATAAATACATATAT [XGTACX_site7933],7.14
18,AATCTAATATAATGCACACATAAAAAAAAATCAAAC [CACACA_site3633],7.89
19,GTATATATATATATATATATAATAGTAACTTTTACT [CACACA_negctrl_site608],7.81
20,CATATATACCTATATACACACATATAGATTTATATA [CACACA_site6451],7.01
21,TTATTCTACATATATGCATGTGTATGATCTGTTTAT [TGCATGCA_site782],7.04
22,ATATAAATGATATGTACACACATTTATATATATAAA [CACACA_site3475],7.04
